# The list shows a part of the results. Single values are uncertain, as repeats are few or missing.
# Experiments:
# Test in all cases: cell count relative to DMSO control; melanoma cells; higher = more viable cells
# MeWo = conditions: library dose: low library concentration; 72 h
# RPMI7951 = conditions: library dose: low library concentration; 72 h
# RVH-421 = conditions: library dose: low library concentration; 72 h
# SkMel28 = conditions: library dose: low library concentration; 72 h
# SkMel2 = conditions: library dose: low library concentration; 72 h
# SkMel30 = conditions: library dose: low library concentration; 72 h
# UACC62 = conditions: library dose: low library concentration; 72 h
# WM115 = conditions: library dose: low library concentration; 72 h
# WM1716 = conditions: library dose: low library concentration; 72 h
# WM1745 = conditions: library dose: low library concentration; 72 h
# WM3526 = conditions: library dose: low library concentration; 72 h
# WM3619 = conditions: library dose: low library concentration; 72 h
# WM451Lu = conditions: library dose: low library concentration; 72 h
# 501Mel = conditions: library dose: standard library concentration; 72 h
# A101D = conditions: library dose: standard library concentration; 72 h
# A2058 = conditions: library dose: standard library concentration; 72 h
# A375 = conditions: library dose: standard library concentration; 72 h
# SkMel5 = conditions: library dose: low library concentration; 72 h
# UACC257 = conditions: library dose: low library concentration; 72 h
smiles,measurement,setting,value
"C=CCNC1=C2C[C@@H](C)C[C@H](OC)[C@H](O)[C@@H](C)/C=C(\C)[C@H](OC(N)=O)[C@@H](OC)/C=C\C=C(/C)C(=O)NC(=CC1=O)C2=O [Tanespimycin] + Cn1nnc2c(C(N)=O)ncn2c1=O [temozolomide] (first compound 0.002 µM, partner dose 2 µM)",cell count,MeWo,112%
same,cell count,RPMI7951,73.2%
same,cell count,RVH-421,113%
same,cell count,SkMel28,90.2%
same,cell count,SkMel2,104%
same,cell count,SkMel30,116%
same,cell count,UACC62,69.5%
same,cell count,WM115,89.8%
same,cell count,WM1716,96.6%
same,cell count,WM1745,84.6%
same,cell count,WM3526,78.2%
same,cell count,WM3619,71.5%
same,cell count,WM451Lu,90.6%
"CNC(=O)c1cc(Oc2ccc(NC(=O)Nc3ccc(Cl)c(C(F)(F)F)c3)cc2)ccn1 [sorafenib] + Nc1ccn([C@@H]2O[C@H](CO)[C@@H](O)C2(F)F)c(=O)n1 [gemcitabine] (first compound 0.4 µM, partner dose 0.0004 µM)",cell count,MeWo,97.5%
same,cell count,RPMI7951,105%
same,cell count,RVH-421,97.8%
same,cell count,SkMel28,104%
same,cell count,SkMel2,93.5%
same,cell count,SkMel30,94%
same,cell count,UACC62,107%
same,cell count,WM115,107%
same,cell count,WM1716,105%
same,cell count,WM1745,94.1%
same,cell count,WM3526,98.6%
same,cell count,WM3619,81%
same,cell count,WM451Lu,114%
"C=CCNC1=C2C[C@@H](C)C[C@H](OC)[C@H](O)[C@@H](C)/C=C(\C)[C@H](OC(N)=O)[C@@H](OC)/C=C\C=C(/C)C(=O)NC(=CC1=O)C2=O [Tanespimycin] + Cn1cc(/C=C2\C(=O)Nc3cccnc32)c2ccccc21 [GW441756] (first compound 0.01 µM, partner dose 2 µM)",cell count,501Mel,66.2%
same,cell count,A101D,72.6%
same,cell count,A2058,118%
same,cell count,A375,145%
"CNC(=O)c1cc(Oc2ccc(NC(=O)Nc3ccc(Cl)c(C(F)(F)F)c3)cc2)ccn1 [sorafenib] + COc1ccc(COc2ccc(Cc3cnc(N)nc3N)cc2OC)cc1 [GW2580] (first compound 2 µM, partner dose 5 µM)",cell count,501Mel,92%
same,cell count,A101D,85.1%
same,cell count,A2058,119%
same,cell count,A375,126%
"CS(=O)(=O)CCNCc1ccc(-c2ccc3ncnc(Nc4ccc(OCc5cccc(F)c5)c(Cl)c4)c3c2)o1 [lapatinib] + CCN(CC)CCCCNc1ncc2cc(-c3cc(OC)cc(OC)c3)c(NC(=O)NC(C)(C)C)nc2n1 [PD173074] (first compound 4 µM, partner dose 0.5 µM)",cell count,501Mel,46.2%
same,cell count,A101D,76.5%
same,cell count,A2058,88%
same,cell count,A375,106%
"CS(=O)(=O)CCNCc1ccc(-c2ccc3ncnc(Nc4ccc(OCc5cccc(F)c5)c(Cl)c4)c3c2)o1 [lapatinib] + O=S(=O)(c1ccccc1)N(CC(F)(F)F)c1ccc(C(O)(C(F)(F)F)C(F)(F)F)cc1 [T0901317] (first compound 4 µM, partner dose 7 µM)",cell count,501Mel,56.1%
same,cell count,A101D,59.2%
same,cell count,A2058,85.9%
same,cell count,A375,122%
"C[C@@H](Oc1cc(-c2cnn(C3CCNCC3)c2)cnc1N)c1c(Cl)ccc(F)c1Cl [Crizotinib] + COc1ccc(-c2ccc3c(N4CCOCC4)nc(N4C[C@@H](C)O[C@@H](C)C4)nc3n2)cc1CO [KU0063794] (first compound 1 µM, partner dose 0.1 µM)",cell count,501Mel,95.6%
same,cell count,A101D,83%
same,cell count,A2058,75.2%
same,cell count,A375,87.6%
"CN1CCN(c2ccc3nc(-c4c(N)c5c(F)cccc5[nH]c4=O)[nH]c3c2)CC1 [Dovitinib] + Oc1nc(-c2ccc(C(F)(F)F)cc2)nc2c1CSCC2 [XAV939] (first compound 0.5 µM, partner dose 10 µM)",cell count,501Mel,70.9%
same,cell count,A101D,58.3%
same,cell count,A2058,38.1%
same,cell count,A375,84%
"CS(=O)(=O)CCNCc1ccc(-c2ccc3ncnc(Nc4ccc(OCc5cccc(F)c5)c(Cl)c4)c3c2)o1 [lapatinib] + COc1cc(Nc2ncc(F)c(Nc3ccc4c(n3)NC(=O)C(C)(C)O4)n2)cc(OC)c1OC [Tamatinib] (first compound 0.8 µM, partner dose 0.4 µM)",cell count,MeWo,90.3%
same,cell count,RPMI7951,65.9%
same,cell count,RVH-421,66.6%
same,cell count,SkMel28,104%
same,cell count,SkMel2,91.8%
same,cell count,SkMel30,101%
same,cell count,SkMel5,102%
same,cell count,UACC257,97.1%
same,cell count,UACC62,82.5%
same,cell count,WM115,83%
same,cell count,WM1716,91.6%
same,cell count,WM1745,84.7%
same,cell count,WM3526,89.6%
same,cell count,WM3619,89%
same,cell count,WM451Lu,79.3%
"C[C@@H](Oc1cc(-c2cnn(C3CCNCC3)c2)cnc1N)c1c(Cl)ccc(F)c1Cl [Crizotinib] + Nc1nc(F)nc2c1ncn2[C@@H]1O[C@H](CO)[C@@H](O)[C@@H]1O [fludarabine] (first compound 0.2 µM, partner dose 0.2 µM)",cell count,MeWo,34.8%
same,cell count,RPMI7951,109%
same,cell count,RVH-421,93.4%
same,cell count,SkMel28,82.5%
same,cell count,SkMel2,9.58%
same,cell count,SkMel30,19.6%
same,cell count,UACC62,79.6%
same,cell count,WM115,94.2%
same,cell count,WM1716,88.6%
same,cell count,WM1745,116%
same,cell count,WM3526,28.8%
same,cell count,WM3619,131%
same,cell count,WM451Lu,57.4%
"CNC(=O)c1cc(Oc2ccc(NC(=O)Nc3ccc(Cl)c(C(F)(F)F)c3)cc2)ccn1 [sorafenib] + O=C(Nc1ccccc1)c1cc([N+](=O)[O-])ccc1Cl [GW9662] (first compound 2 µM, partner dose 10 µM)",cell count,501Mel,76.5%
same,cell count,A101D,69.3%
same,cell count,A2058,104%
same,cell count,A375,157%
"CS(=O)(=O)CCNCc1ccc(-c2ccc3ncnc(Nc4ccc(OCc5cccc(F)c5)c(Cl)c4)c3c2)o1 [lapatinib] + CCc1ccc(CCOc2ccc(CC3SC(=O)NC3=O)cc2)nc1 [pioglitazone] (first compound 4 µM, partner dose 10 µM)",cell count,501Mel,60.7%
same,cell count,A101D,92.4%
same,cell count,A2058,82.7%
same,cell count,A375,134%
"C=CCNC1=C2C[C@@H](C)C[C@H](OC)[C@H](O)[C@@H](C)/C=C(\C)[C@H](OC(N)=O)[C@@H](OC)/C=C\C=C(/C)C(=O)NC(=CC1=O)C2=O [Tanespimycin] + COc1ccc(-c2ccc3c(N4CCOCC4)nc(N4C[C@@H](C)O[C@@H](C)C4)nc3n2)cc1CO [KU0063794] (first compound 0.002 µM, partner dose 0.02 µM)",cell count,MeWo,99%
same,cell count,RPMI7951,83.1%
same,cell count,RVH-421,93.7%
same,cell count,SkMel28,104%
same,cell count,SkMel2,90.3%
same,cell count,SkMel30,96.3%
same,cell count,SkMel5,115%
same,cell count,UACC257,118%
same,cell count,UACC62,102%
same,cell count,WM115,90%
same,cell count,WM1716,104%
same,cell count,WM1745,98%
same,cell count,WM3526,92%
same,cell count,WM3619,88.1%
same,cell count,WM451Lu,76%
